Source: article PMC7160150
Results are given in words; binding and its absence hold for the method and conditions named. In cells and extracts the contact can be indirect. Some entries that bind do so weakly or less than the wild type. One block for each substance: values may come before it.

Amino acid sequences for entries named in this document (tags omitted).
UniProt Q7XA73: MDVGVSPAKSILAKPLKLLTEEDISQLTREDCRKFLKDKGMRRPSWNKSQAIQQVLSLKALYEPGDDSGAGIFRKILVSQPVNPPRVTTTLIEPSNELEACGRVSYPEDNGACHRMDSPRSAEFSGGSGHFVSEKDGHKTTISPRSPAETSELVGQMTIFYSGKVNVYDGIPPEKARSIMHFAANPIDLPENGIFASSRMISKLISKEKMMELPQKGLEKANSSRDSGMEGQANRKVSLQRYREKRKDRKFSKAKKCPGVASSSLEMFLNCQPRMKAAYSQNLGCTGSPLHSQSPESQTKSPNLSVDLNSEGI
UniProt Q8GY55: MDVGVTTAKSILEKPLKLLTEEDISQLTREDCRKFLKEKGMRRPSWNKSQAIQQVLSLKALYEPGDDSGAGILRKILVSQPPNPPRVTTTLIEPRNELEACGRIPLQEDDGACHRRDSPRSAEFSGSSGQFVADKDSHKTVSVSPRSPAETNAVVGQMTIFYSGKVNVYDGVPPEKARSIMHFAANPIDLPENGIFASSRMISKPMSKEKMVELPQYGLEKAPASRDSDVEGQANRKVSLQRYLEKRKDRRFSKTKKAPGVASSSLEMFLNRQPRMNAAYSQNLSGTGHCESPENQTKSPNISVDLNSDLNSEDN
UniProt O49687: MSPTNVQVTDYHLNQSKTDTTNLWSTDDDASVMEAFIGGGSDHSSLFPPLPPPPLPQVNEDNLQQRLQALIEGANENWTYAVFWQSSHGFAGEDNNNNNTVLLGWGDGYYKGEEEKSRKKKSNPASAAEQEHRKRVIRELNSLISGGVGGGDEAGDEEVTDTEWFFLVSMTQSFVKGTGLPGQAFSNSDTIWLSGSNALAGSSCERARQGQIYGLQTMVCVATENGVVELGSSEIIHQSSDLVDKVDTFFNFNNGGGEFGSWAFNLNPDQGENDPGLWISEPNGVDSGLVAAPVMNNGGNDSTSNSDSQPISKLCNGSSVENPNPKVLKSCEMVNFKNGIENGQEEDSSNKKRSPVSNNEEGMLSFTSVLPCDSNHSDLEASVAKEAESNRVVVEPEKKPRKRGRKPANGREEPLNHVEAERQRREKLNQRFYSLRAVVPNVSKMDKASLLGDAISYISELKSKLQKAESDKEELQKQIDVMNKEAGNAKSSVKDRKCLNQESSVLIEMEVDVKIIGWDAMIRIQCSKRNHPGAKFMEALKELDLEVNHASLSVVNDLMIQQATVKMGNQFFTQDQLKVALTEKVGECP
UniProt Q39204: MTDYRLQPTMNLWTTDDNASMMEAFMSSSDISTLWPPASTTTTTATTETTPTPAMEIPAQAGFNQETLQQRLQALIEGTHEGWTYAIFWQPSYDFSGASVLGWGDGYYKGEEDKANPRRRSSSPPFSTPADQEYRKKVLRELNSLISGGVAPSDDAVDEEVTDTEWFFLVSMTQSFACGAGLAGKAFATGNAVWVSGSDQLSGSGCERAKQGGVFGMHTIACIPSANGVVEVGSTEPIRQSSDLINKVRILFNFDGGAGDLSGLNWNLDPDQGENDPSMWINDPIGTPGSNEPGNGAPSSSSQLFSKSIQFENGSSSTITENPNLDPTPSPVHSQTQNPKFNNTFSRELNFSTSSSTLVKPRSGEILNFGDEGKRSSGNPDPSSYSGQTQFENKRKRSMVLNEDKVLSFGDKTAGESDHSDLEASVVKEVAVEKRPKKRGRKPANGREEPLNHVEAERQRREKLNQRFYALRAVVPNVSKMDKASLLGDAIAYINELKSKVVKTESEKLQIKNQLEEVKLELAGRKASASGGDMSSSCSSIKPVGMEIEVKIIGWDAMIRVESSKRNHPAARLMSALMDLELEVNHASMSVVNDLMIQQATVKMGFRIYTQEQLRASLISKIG

How the values were obtained:
[1] = target: MBP-PPD1 (Arabidopsis thaliana (Col-0)) (UniProt Q7XA73); assay: pull-down; GST-MYC3/4 incubated with MBP-PPD1/2 or MBP (E. coli proteins obtained by sonication) at 4 °C for 1 h; pulled down with anti-MBP agarose beads; 50 mM HEPES pH 7.5, 150 mM NaCl, Triton X-100; blot with anti-GST and anti-MBP
[2] = target: MBP-PPD2 (Arabidopsis thaliana (Col-0)) (UniProt Q8GY55); assay: as above
[3] = target: GFP-MYC4 (Arabidopsis thaliana (Col-0)) (UniProt O49687); assay: co-IP; total protein extracts of transgenic Arabidopsis plants expressing Myc- and GFP-tagged proteins; GFP-Trap agarose beads, 4 °C 1 h; 50 mM Tris-HCl pH 7.5, 150 mM NaCl, Triton X-100; blot with anti-GFP and anti-Myc
[4] = target: GFP-MYC2 (Arabidopsis thaliana (Col-0)) (UniProt Q39204); assay: as above
[5] = target: MYC4-CFP (Arabidopsis thaliana (Col-0)) (UniProt O49687); assay: FRET or BRET; FRET-FLIM; CFP and YFP fusions coinfiltrated into N. benthamiana leaves; CFP fluorescence lifetime 2 days after coinfiltration
[6] = target: T1, ETHYLENE-…3-LIKE 1 (EIL1) (UniProt Q9SLH0); assay: split reporter; split luciferase complementation; nLUC and cLUC fusions coexpressed in N. benthamiana leaves; luciferase activity detected 2 days after infiltration
T1 sequence: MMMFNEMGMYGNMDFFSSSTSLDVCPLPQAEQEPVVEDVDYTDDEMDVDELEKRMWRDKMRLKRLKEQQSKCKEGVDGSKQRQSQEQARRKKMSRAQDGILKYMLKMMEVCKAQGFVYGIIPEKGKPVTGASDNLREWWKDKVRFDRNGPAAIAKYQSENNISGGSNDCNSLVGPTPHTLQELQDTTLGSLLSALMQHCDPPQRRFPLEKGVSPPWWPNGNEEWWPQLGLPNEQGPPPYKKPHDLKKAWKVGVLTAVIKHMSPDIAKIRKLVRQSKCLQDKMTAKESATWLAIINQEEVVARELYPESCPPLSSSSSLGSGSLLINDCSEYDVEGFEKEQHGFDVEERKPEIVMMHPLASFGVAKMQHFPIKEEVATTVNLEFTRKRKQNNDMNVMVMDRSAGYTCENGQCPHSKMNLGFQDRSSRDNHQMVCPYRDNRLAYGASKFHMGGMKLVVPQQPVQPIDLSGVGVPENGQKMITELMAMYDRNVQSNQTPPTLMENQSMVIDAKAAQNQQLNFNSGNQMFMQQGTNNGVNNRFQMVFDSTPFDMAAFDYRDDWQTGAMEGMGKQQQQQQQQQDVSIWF

MYB21 = target: T2, MYB21 (UniProt Q9LK95); assay: as above
T2 sequence: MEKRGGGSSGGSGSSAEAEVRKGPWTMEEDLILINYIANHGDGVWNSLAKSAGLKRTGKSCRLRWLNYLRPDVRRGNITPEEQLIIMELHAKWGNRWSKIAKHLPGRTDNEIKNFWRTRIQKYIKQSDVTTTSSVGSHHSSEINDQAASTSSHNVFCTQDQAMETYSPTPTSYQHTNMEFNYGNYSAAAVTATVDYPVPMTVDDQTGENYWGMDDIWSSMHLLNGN

ETHYLENE-… 3 (EIN3) = target: T3, ETHYLENE-… 3 (EIN3) (UniProt O24606); assay: as above
T3 sequence: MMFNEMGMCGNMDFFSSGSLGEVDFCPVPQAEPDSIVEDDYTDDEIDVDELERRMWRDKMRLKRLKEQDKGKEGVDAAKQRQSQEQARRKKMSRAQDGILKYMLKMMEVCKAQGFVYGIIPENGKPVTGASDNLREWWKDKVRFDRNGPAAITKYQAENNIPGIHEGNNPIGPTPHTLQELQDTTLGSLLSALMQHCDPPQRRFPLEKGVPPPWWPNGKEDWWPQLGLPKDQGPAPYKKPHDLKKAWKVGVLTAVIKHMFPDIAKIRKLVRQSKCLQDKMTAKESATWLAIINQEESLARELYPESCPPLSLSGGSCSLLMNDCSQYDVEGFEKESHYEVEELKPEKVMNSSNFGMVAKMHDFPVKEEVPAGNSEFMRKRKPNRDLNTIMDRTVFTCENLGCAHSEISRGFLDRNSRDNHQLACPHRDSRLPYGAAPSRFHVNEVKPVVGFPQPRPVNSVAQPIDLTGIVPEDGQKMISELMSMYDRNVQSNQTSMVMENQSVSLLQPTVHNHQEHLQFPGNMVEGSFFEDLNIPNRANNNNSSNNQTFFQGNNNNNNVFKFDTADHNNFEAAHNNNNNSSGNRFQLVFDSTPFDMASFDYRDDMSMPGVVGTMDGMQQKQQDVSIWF

[7] = target: MYC4-nLUC (Arabidopsis thaliana (Col-0)) (UniProt O49687); assay: as above
[8] = target: MYC2-nLUC (Arabidopsis thaliana (Col-0)) (UniProt Q39204); assay: as above
… TESTA 8 (TT8) = target: T4, … TESTA 8 (TT8) (UniProt Q9FT81); assay: as above
T4 sequence: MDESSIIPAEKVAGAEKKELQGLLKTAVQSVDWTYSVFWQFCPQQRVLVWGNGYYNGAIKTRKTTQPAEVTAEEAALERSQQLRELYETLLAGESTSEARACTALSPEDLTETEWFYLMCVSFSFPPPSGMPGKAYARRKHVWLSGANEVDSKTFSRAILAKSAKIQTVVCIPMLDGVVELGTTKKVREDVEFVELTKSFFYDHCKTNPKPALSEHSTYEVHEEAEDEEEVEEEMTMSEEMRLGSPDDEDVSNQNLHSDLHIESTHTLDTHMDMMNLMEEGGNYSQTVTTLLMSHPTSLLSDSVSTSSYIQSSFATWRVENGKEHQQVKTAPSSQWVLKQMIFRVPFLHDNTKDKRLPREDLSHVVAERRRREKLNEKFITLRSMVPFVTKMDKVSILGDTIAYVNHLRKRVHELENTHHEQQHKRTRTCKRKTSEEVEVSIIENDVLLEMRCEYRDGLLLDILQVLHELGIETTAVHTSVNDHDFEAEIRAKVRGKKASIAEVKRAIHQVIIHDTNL

GLABROUS 3 (GL3) = target: T5, GLABROUS 3 (GL3) (UniProt Q9FN69); assay: as above
T5 sequence: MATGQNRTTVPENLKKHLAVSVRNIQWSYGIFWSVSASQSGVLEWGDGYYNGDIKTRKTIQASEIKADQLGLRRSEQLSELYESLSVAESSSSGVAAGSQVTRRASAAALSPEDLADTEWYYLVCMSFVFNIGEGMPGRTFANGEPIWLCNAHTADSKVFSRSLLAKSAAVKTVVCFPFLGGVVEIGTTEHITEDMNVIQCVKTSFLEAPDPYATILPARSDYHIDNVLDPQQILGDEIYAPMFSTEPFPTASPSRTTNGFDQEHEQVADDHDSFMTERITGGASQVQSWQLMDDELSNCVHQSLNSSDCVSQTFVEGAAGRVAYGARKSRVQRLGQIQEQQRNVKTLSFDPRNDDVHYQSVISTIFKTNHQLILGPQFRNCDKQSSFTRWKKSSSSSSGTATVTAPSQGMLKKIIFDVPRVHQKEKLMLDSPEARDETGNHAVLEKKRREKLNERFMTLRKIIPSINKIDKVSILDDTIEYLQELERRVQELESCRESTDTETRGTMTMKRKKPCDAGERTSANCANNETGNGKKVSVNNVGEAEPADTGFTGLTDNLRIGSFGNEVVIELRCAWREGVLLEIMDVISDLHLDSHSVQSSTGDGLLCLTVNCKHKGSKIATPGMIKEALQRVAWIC

MYB24 = target: T6, MYB24 (UniProt Q9SPG9); assay: as above
T6 sequence: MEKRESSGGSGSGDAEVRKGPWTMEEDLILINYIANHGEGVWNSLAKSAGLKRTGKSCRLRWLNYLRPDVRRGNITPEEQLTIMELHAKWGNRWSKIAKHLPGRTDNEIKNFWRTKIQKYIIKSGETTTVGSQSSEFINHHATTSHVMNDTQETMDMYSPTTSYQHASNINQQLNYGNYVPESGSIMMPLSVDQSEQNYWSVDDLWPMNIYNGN

[9] = target: T7, ENHANCER OF GLABRA 3 (EGL3) (UniProt Q9CAD0); assay: as above
T7 sequence: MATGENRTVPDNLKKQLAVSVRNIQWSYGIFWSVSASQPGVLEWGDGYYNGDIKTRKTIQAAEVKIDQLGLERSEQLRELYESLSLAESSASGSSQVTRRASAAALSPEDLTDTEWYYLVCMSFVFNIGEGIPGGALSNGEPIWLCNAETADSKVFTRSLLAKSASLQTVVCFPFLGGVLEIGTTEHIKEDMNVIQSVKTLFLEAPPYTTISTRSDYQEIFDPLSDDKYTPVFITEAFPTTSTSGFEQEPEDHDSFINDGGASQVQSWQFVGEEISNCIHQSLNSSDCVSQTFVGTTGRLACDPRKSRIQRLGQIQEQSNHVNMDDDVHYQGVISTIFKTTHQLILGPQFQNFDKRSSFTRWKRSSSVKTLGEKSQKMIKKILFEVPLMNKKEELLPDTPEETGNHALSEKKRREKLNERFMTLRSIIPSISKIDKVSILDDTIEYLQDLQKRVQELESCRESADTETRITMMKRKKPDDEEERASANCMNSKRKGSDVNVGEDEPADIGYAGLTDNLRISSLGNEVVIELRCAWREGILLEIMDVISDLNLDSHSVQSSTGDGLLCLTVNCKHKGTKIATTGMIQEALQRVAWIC

GLABRA 1 (GL1) = target: T8, GLABRA 1 (GL1) (UniProt P27900); assay: as above
T8 sequence: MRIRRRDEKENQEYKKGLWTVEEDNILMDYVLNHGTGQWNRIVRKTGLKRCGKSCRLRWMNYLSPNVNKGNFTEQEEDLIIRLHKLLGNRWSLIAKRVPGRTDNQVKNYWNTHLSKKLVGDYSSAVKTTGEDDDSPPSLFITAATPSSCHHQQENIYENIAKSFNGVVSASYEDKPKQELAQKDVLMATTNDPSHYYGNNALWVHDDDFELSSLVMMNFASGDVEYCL

[10] = target: cYFP-MYC4 (Arabidopsis thaliana (Col-0)) (UniProt O49687); assay: split reporter; bimolecular fluorescence complementation; cYFP and nYFP fusions coinfiltrated into N. benthamiana leaves; YFP fluorescence 2 days after infiltration

Substance: GST-MYC4 (from UniProt O49687 1-589)
binding [1]: binds
binding [2]: binds

Substance: PPD2-YFP (from UniProt Q8GY55 1-315)
binding [5]: binds

Substance: nYFP-PPD1 (from UniProt Q7XA73 1-313)
binding [10]: binds

Substance: nYFP-PPD2 (from UniProt Q8GY55 1-315)
binding [10]: binds

Further lines, results first:

binding [3]: binds
binding [4]: no binding
Substance: Myc-PPD1 (from UniProt Q7XA73 1-313)

binding [3]: binds
binding [4]: no binding
Substance: Myc-PPD2 (from UniProt Q8GY55 1-315)

binding [5]: binds
Substance: PPD1-YFP (from UniProt Q7XA73 1-313)

binding [6]: no binding
binding (MYB21): no binding
binding (ETHYLENE-… 3 (EIN3)): no binding
binding [7]: binds
binding [8]: no binding
binding (… TESTA 8 (TT8)): no binding
binding (GLABROUS 3 (GL3)): no binding
binding (MYB24): no binding
binding [9]: no binding
binding (GLABRA 1 (GL1)): no binding
Substance: cLUC-PPD1 (from UniProt Q7XA73 1-313)

binding [6]: no binding
binding (MYB21): no binding
binding (ETHYLENE-… 3 (EIN3)): no binding
binding [7]: binds
binding [8]: no binding
binding (… TESTA 8 (TT8)): no binding
binding (GLABROUS 3 (GL3)): no binding
binding (MYB24): no binding
binding [9]: no binding
binding (GLABRA 1 (GL1)): no binding
Substance: cLUC-PPD2 (from UniProt Q8GY55 1-315)
